Laboratory results reported in PubChem BioAssay AID902 (National Center for Advancing Translational Sciences (NCATS), 2007).
The whole screen tested about 130,000 compounds, of which about 1,900 (1.5%) were called active. The inconclusive results got no clear call from the source; some entries with a clear call stand among them for comparison. Calls come from the whole dose curve; as a rule, active = well fitted cell-killing curve with a large enough effect; inconclusive = small, poorly fitted or top-dose-only effect; inactive = no such curve, though single readings can be large or run the other way. Potencies beside an inconclusive call are fits to weak or partial responses and may not hold up.

test: qHTS Screen for Compounds that Selectively Target Cancer Cells with p53 Mutations: Cytotoxicity of p53ts Cells at the Nonpermissive Temperature; conditions: H1299-p53A138V viability at 39C, ATP luminescence, 24 h; activity change, negative = cell killing: at 46.1 µM (top of the series); note: nearly all actives have a fitted effect of over 55% in size
% is set by controls: 0 for no effect and ±100 for the full control effect; potency is the fitted concentration of half-maximal effect; tags give direction and shape of the fitted curve.

SMILES | Potency | activity change, negative = cell killing
CCCCOC(=O)c1ccc(Nc2nc3ccc(C(=O)c4ccccc4)cc3n3cnnc23)cc1 | inactive | –
CCOc1ccc(OCC)c(NC(=O)c2cc(-c3cccs3)nc3ccccc23)c1 | inconclusive: 31.6 µM [cytotoxic, single point] | –
CCC(C)NC(=O)c1cn(CC)c2ccc(S(=O)(=O)N3CCc4ccccc4C3)cc2c1=O (centres undefined) | inactive | –
O=C(CSc1nc2ccccc2n1Cc1cccc(F)c1)N1CCN(c2ccc(F)cc2)CC1 | inconclusive: 12.6 µM [cytotoxic, single point] | –
Cc1cc(N2CCC(C)CC2)nc2ccc(NC(=O)CCC(=O)N3CCN(c4ccccc4F)CC3)cc12 | inconclusive: 15.8 µM [cytotoxic, single point] | –
CCN(C(=O)c1ccco1)c1nnc(-c2ccc(OC)cc2)s1 | inconclusive: 5.62 µM [cytotoxic, single point] | –
Cc1ccc(C)c2[nH]c(=O)c(CN(CCN3CCCC3)C(=O)Nc3cccc(Cl)c3)cc12 | inconclusive: 15.8 µM [cytotoxic, partial curve] | –
Cc1ccc(C)c(NS(=O)(=O)c2ccc3oc(=O)c4ncn(C)c4c3c2)c1 | active: 7.94 µM | –
Cc1ccc(N(C)C(=O)C2CCN(S(=O)(=O)c3cn(C)cn3)CC2)cc1 | inactive | –
N#CCCS(=O)(=O)c1nnnn1-c1ccccc1 | active: 20 µM | –
CN1CCN(Cc2nc3ccccc3c(=O)n2Cc2nc(-c3ccc4ccccc4c3)cs2)CC1 | inconclusive: 35.5 µM [cytotoxic, single point] | –
CO[C@H]1COC(=O)C/C=C\[C@H](C)[C@@H](OC)COC(=O)[C@H](C)COC(=O)C/C=C\[C@@H]1C | – | inactive: 9.97% [at 9.22 µM]
O=C(O)c1cccc(COc2ccc(CO)cc2Cl)c1 | active: 3.98 µM | –
O=C1c2ccccc2C(=O)N1CCCc1nc(-c2ccccn2)no1 | inactive | –
CCOc1ccc(/C=C/c2nc(C#N)c(NCCCN(C)C)o2)cc1 | inconclusive: 15.8 µM [cytotoxic, partial curve] | –
CCc1ccc2oc(-c3ccc(NC(=O)c4cccc(Cl)c4Cl)cc3)nc2c1 | inconclusive: 15.8 µM [cytotoxic, single point] | –
NC(=O)N/N=C1\CC[C@H](O)C[C@@H]1CC(=O)O | – | inactive: -14.9% [at 9.22 µM]
COC(=O)c1ccccc1NC(=O)Cn1c(=O)n(CCCC(=O)NCc2ccccc2Cl)c(=O)c2ccccc21 | inconclusive: 12.6 µM [cytotoxic, single point] | –
O=C(NCc1cccs1)c1ccncc1 | inactive | –
Cc1ccc(NC(=O)C(C)Sc2nc3c(c(=O)[nH]2)CCCC3)cc1Cl (centres undefined) | inactive | –
Cc1ccc(N2C(=O)CS(=O)(=O)C23C(=O)N(Cc2ccc(Cl)cc2)c2ccccc23)cc1C (centres undefined) | inactive | –
CN(C)c1ccc(CNC(=O)C2CCN(S(=O)(=O)c3ccc4[nH]c(=O)ccc4c3)CC2)cc1 | inconclusive: 25.1 µM [cytotoxic, partial curve, poor fit] | –

SMILES | Potency | activity change, negative = cell killing
COc1cc(-c2ccno2)ccc1S(=O)(=O)N1CCN(c2ccccc2)CC1 | inconclusive: 0.158 µM [cytotoxic, full curve, poor fit] | –
Cc1cccc(Nc2nc3c(S(=O)(=O)c4ccc(Br)cc4)nnn3c3ccsc23)c1C | inconclusive: 31.6 µM [cytotoxic, single point] | –
Cc1ccc(NC(=O)CCSc2nc(-c3ccc4c(c3)OCO4)cc(C(F)(F)F)n2)c(C)c1 | inconclusive: 10 µM [cytotoxic, partial curve] | –
Clc1cccc(-n2ncc3c(NCCCN4CCOCC4)ncnc32)c1 | inconclusive: 31.6 µM [cytotoxic, single point] | –
Cc1ccc(CNC(=O)c2cccc(Nc3nc4ccccc4n4nnnc34)c2)cc1 | active: 6.31 µM | –
CC1=C(C(=O)N(C)Cc2ccccc2)C2(CCC(C)CC2)OC1=O (centres undefined) | inactive | –
O=C(Nc1ccc2c3c(cccc13)CC2)c1ccco1 | inconclusive: 12.6 µM [cytotoxic, single point] | –
Cc1ccc(CNC(=O)CN2C(=O)COc3ccccc32)cc1 | inconclusive: 7.94 µM [cytotoxic, partial curve] | –
CCOc1ccc(CCNC(=O)c2cc(Nc3ccc(C)cc3C)nc3ccccc23)cc1OCC | inactive | –
CCOC(=O)/C=C/S(=O)(=O)c1ccc(NC(C)=O)cc1 | inconclusive: 25.1 µM [cytotoxic, single point] | –
COc1ccc2c3c(ccc2c1)N[C@H](C(=O)O)CC3 | inconclusive: 3.98 µM [cytotoxic, single point] | –
Cc1ccc2occ(CC(=O)Nc3c(C(=O)Nc4ccc(Cl)cc4)oc4ccccc34)c2c1 | inconclusive: 7.94 µM [cytotoxic, partial curve] | –
CN(C(=O)CSc1nc2ccccc2[nH]1)c1ccc(F)cc1 | inactive | –
COc1ccc(C2N3CC4(C)CN2CC(C)(C3)C4O)cc1 (centres undefined) | inactive | –
CCOc1ccc(C(=O)Nc2ccc3nc4c(c(Nc5ccccc5OC)c3c2)CCCC4)cc1 | inconclusive: 14.1 µM [cytotoxic, single point] | –
CCOc1ccc2nc(NC(=O)c3nc(SCc4ccc(C)cc4)ncc3Cl)sc2c1 | inconclusive: 0.158 µM [cytotoxic, full curve, poor fit] | –
O=C(O)c1c2c(c(O)c3c1CN(C1CCCCC1)CO3)OCN(C1CCCCC1)C2 | – | inactive: 12.4% [at 9.22 µM]
CCCOCc1cc(CN2CCN(c3ccccc3OC)CC2)c(O)c2ncccc12 | active: 10 µM | –
CCOC(=O)c1ccc(N2Cc3ccccc3C2=NC(=O)c2cccs2)cc1 | inconclusive: 0.0224 µM [cytotoxic, full curve, poor fit] | –
CC(=O)N(C)c1ccc(NC(=O)c2ccco2)cc1 | inconclusive: 12.6 µM [cytotoxic, single point] | –
CCc1ccc(NC(=O)CC2C(=O)N(c3ccc(Cl)cc3)C(=O)N2C2CCCC2)cc1 (centres undefined) | inconclusive: 8.91 µM [cytotoxic, partial curve] | –
Cc1cc(C(=O)Nc2sc3c(c2C#N)CCCC3)no1 | active: 12.6 µM | –
